In this experiment the target is T1, Hs_CD123_6His-Avi (CD123 ECD-His-Avi fusion protein) (human, UniProt P26951 19-303).
T1 construct: The signal peptide is marked only by bold type, so its limits cannot be read here and were not guessed; also called His-Avi tagged peptide encompassing the ECD of human CD123
T1 sequence: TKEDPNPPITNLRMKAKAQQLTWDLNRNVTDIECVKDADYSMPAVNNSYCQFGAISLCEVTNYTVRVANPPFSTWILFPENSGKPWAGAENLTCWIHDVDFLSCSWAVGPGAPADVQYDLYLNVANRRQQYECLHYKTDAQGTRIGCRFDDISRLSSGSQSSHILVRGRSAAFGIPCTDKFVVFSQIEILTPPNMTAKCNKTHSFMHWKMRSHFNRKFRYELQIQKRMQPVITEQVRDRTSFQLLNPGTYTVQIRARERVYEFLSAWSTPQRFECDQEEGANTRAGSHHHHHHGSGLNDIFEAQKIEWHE
The experiment in a line: SPR (Biacore T-100), univalent affinity; antibody captured on the CM4 chip, human CD123 ECD as analyte. Here is the method:
FIGS. 21A-21B. Surface plasmon resonance (Biacore T-100) analyses were performed to rigorously/precisely determine univalent binding affinities of recombinant, fully human versions of the anti-human CD123 monoclonal antibodies 1B5, 1D9, and 1E3, using human IgG1 (FIG. 21A) and human IgG4 frameworks (FIG. 21B). For these experiments, a peptide encoding the complete extracellular portion of human CD123 was used, and the antibodies were captured on the biosensor chip (CM4) via a Fc gamma-specific goat anti-human IgG and amine coupling.

In general, Kd refers to the equilibrium constant for the complex coming apart. The koff is a measure of how fast the partners let go of each other. Read a high koff as a short-lived complex. As usually defined, the kon is a measure of how fast the partners come together. A low value points to slower complex formation.

B1: 123-ATX1B5, fully human recombinant antibody, human IgG1 framework (antibody)
heavy: EVQLVESGGGLVQPGGSLRLSCATSGFTFSNYDMHWVRQVTGKGLEWVSGIGIAGDTYYPGSVKGRFTISREDAKNSLYLQMNSLRAEDTAVYYCATERGSSSWYNYFDYWGQGTLVTVSS[human IgG1 constant region not printed]
light: [about 100 residues not printed][about 120 residues not printed]
notes: also called 1B5 (human IgG1)
As to B1, binding was characterised by a dissociation constant (Kd) of 4.92 nM, the koff was 0.00316 s⁻¹ and the on-rate constant (kon) stood at 643000 M⁻¹ s⁻¹.

B2: 123-ATX1B5, fully human recombinant antibody, human IgG4 framework (antibody)
heavy: EVQLVESGGGLVQPGGSLRLSCATSGFTFSNYDMHWVRQVTGKGLEWVSGIGIAGDTYYPGSVKGRFTISREDAKNSLYLQMNSLRAEDTAVYYCATERGSSSWYNYFDYWGQGTLVTVSSASTKGPSVFPLAPCSRSTSESTAALGCLVKDYFPEPVTVSWNSGALTSGVHTFPAVLQSSGLYSLSSVVTVPSSSLGTKTYTCNVDHKPSNTKVDKRV[human IgG4 Fc with S228P (EU numbers) not printed]
light: [about 100 residues not printed][about 120 residues not printed]
notes: also called 1B5 (human IgG4)
B2: the affinity, expressed as Kd, was 4.71 nM; the off-rate constant (koff) was 0.00301 s⁻¹; the kon stood at 639000 M⁻¹ s⁻¹.
